Results on 22 molecules are retold here after paper PMC12136788.

Sequences and labels used below:
B1: chr2:207821287:207828318:-|three_prime_utr|ENSG00000178385|control|control|control (ssRNA)
RNA: GGGAGUUCUACAGUCCGACGAUCACCCGAAGGCCAGGGAUUCACCAAUCAACAAUCCAUCAGCCCCAGAGCGGCCUCCUAACUAGCCAGUUAGACCCCUUUGGAAGAAGAGUAUGUAUCCUCUUCAACUAGAUAUAGAUAUAUCAACAGAGGAUUGAGCAUCA
B2: ENSG00000198589:be:win_7551|CDS|ENSG00000198589|bound_else_gene|NA|bound_elsewhere_windowed (ssRNA)
RNA: GGGAGUUCUACAGUCCGACGAUCGCCUGGUUUGGCAACUCCCGCUGUGAUCACAGUCACUGCUAACAGGUUAUUUGCGGUGAACAAAUGGCACAACCUUCCUGCUCAUCAAGGUGCUGUACAAGACCAGCCAUACCAGCUGCCCAACAGAGGAUUGAGCAUCA
B3: chr3:62294137:62294238:+|3pUTR|ENSG00000144724|msi1|FALSE|unique (ssRNA)
RNA: GGGAGUUCUACAGUCCGACGAUCUGAGACCCUUUAGUUAUUCUCCAUUAAUGCUUCUUAGUUUGUAAUACCAUACCUCACAGUAGGUAGAAGAAUGAAAACUUCUGCAGGUGUGUAAUUUUGAAACUAGUCCUCUAAAAAUUCCAACAGAGGAUUGAGCAUCA
B4: chr1:114567884:114567985:-|3pUTR|ENSG00000116752|msi1|FALSE|bound_elsewhere (ssRNA)
RNA: GGGAGUUCUACAGUCCGACGAUCUGGUAAUUCUAUUUGUAUAUCUCAACAGAAUUAAAAUGUCUAGCUUGGUGGUAUUUUUAUAGCCAUAAAAGAAAAUCUUUAGGCUUUCAAAAUAAGGAUGACUUUAGAAUAAUAUUGUGUCAACAGAGGAUUGAGCAUCA
B5: chr1:53952023:53952124:+|CDS|ENSG00000116212|msi1|total|mutant (ssRNA)
RNA: GGGAGUUCUACAGUCCGACGAUCUACAUGCGAGAAAAUGGGCAGCUGCACAUGGUCAAUCUGGCUCUGGAUGGUGUCAGGAGCCGCCUGCAGAAGCCAAGGCCUUUCAGACUGUUCCCCAAAGGCUUUUCUGUGGAGCUUUGCCAACAGAGGAUUGAGCAUCA
B6: chr2:227556236:227556337:+|3pUTR|ENSG00000173744|msi1|FALSE|bound_elsewhere (ssRNA)
RNA: GGGAGUUCUACAGUCCGACGAUCUGUUGAAUGCCUUUUUGCAAUGAUGACUGAGUUGUUAUCAUAGUAUUUUAAAACCUGUAUAGUGUUUUAGACUUGUUAAAACAUUGCUGUCUAGUGUACAUCUAGCUAAAAGUGUGGUUUCAACAGAGGAUUGAGCAUCA
B7: ENSG00000165219:stop:overlap|stop_codon|ENSG00000165219|stop_codon|NA|stop_codon (ssRNA)
RNA: GGGAGUUCUACAGUCCGACGAUCUACCUAUAGGUAAAGAGAAUUUCUCGUAUUGGAGCUUUCUCUUAAAUCUAAUAUUUCAUUAGCCUUUGUUAUUGCUGAGUGUUUUGGAACAUAUGUUUAAGUACUUGGGAAAGUCUUUCUCAACAGAGGAUUGAGCAUCA
B8: chr5:72198766:72198867:+|CDS|ENSG00000131711|msi1_unk|FALSE|overlapping (ssRNA)
RNA: GGGAGUUCUACAGUCCGACGAUCUUCUACCUCUGCAGUCAAAGAGAAAACAGCAACUUGCCACAGUUCCUCUUCUCCACCAAUAGAUGCAGCAUCCGCAGAGCCCUAUGGCUUCCGUGCCUCAGUGUUAUUCGAUACAAUGCACAACAGAGGAUUGAGCAUCA
B9: chr3:44446857:44446958:-|CDS|ENSG00000185219|msi1|FALSE|unique (ssRNA)
RNA: GGGAGUUCUACAGUCCGACGAUCGGGAGACAUACCCUUUCCAGUCACCAGAGGAAACACACCAGAGCAGCACAGGCUGAACGUAGCCCGCCUGCACGGUCUUCCUCUCAGGACACAAAGUUGAGAUUACAGAAGCUAAAACCACAACAGAGGAUUGAGCAUCA
B10: chr15:60490033:60490134:-|3pUTR|ENSG00000069667|unk|FALSE|unique (ssRNA)
RNA: GGGAGUUCUACAGUCCGACGAUCUGCUGGAUUUGGGACAUGCUUUUCUCUUUAAAUACAUAAUAUCAUUAUAUAAAUUAUUCUAGAGUGUAUUUAAUUAGGAUAAAAUUACUUCCUUAGUAUGGAUAUUUGACAUCUAUAGGGCAACAGAGGAUUGAGCAUCA
B11: ENSG00000136451:be:win_1801|3pUTR|ENSG00000136451|bound_else_gene|NA|bound_elsewhere_windowed (ssRNA)
RNA: GGGAGUUCUACAGUCCGACGAUCGCUUAAACAGGAUAGUAGUUGGCAAGAUGAAAUGCCAGAAUUAAAACCAAUCAUAAGUAGAACCCACUUCAAAAUAAAAAAACAGCAUUACUAUUUCUAAUCCCAAGGAAUCACUUUAUUCAACAGAGGAUUGAGCAUCA
B12: chr4:103158754:103158855:-|CDS|ENSG00000138778|msi1|FALSE|unique (ssRNA)
RNA: GGGAGUUCUACAGUCCGACGAUCGGAGAAAACACGUGAGGUUCAAGAAAGACUAAAUGAGAUGGAACAGCUGAAGGAACAAUUAGAAAAUAGAGAUUCUACGCUGCAAACUGUAGAAAGGGAGAAAACACUGAUUACUGAGAACAACAGAGGAUUGAGCAUCA
B13: chr15:19964665:19964972:-|CDS|ENSG00000188403|control|control|control (ssRNA)
RNA: GGGAGUUCUACAGUCCGACGAUCAUGCACUGGGUGUGCCAGGCCCAUGCACAAGGGCUUGAGUGGAUGGGAUUGGUGUGCCCUAGUGAUGGCAGCACAAGCUAUGCACAGAAGUUCCAGGGCAGAGUCACCAUAACCAGGGACCAACAGAGGAUUGAGCAUCA
B14: chr4:168926953:168927063:+|3pUTR|ENSG00000129116|msi1_unk|FALSE|overlapping (ssRNA)
RNA: GGGAGUUCUACAGUCCGACGAUCCAAAAGAGUUUUCUAACAAGGUUAAUACCUUAGUUCUUAACAUUUUUUUUCUUUAUGUGUAGUGUUUUCAUGCUACCUUGGUAGGAAACUUAUUUACAAACCAUAUUAAAAGGCUAAUUUCAACAGAGGAUUGAGCAUCA
B15: chr14:100881274:100881386:-|CDS|ENSG00000254656|unk|FALSE|unique (ssRNA)
RNA: GGGAGUUCUACAGUCCGACGAUCCGCAGGCAGCAGCAUCACGACAGCCAUCACCCAGCUGCUCACCCAGAUGCCCGCUCUCGUAGGUGCAAACACCAUCCCAGCCCAGGAGCUGGCUGAGCUGUUCCUGGGCCCUGGCCGCUGCAACAGAGGAUUGAGCAUCA
B16: chr1:45693489:45693605:+|CDS|ENSG00000159596|unk|FALSE|unique (ssRNA)
RNA: GGGAGUUCUACAGUCCGACGAUCAAUCCCCUUCGUUGCUCCACCACUGGUCAUGCUGAUGACAAAAACUUAUAUUCCCAUAUUAGCUUUUACUCAGAUGGCUUAUGGAGCCAGUUUCCUAUCUUUCUUGGGUGGGAUCAGAUGCAACAGAGGAUUGAGCAUCA
B17: chr2:5695263:5695412:+|3pUTR|ENSG00000176887|msi1_unk|total|mutant (ssRNA)
RNA: GGGAGUUCUACAGUCCGACGAUCUGGUGAUACCGACCUCAGAGCUGUUAUCUCCGUUUAAAGAUUGUAUAUGUACUGUACUACCGCCGGACUUUAUGUAUCUCAUACGCUGUGAUGUGGAUGGGGCCCCAGAUGGAAGGUUUGCAACAGAGGAUUGAGCAUCA
B18: chr10:92050442:92050545:-|3pUTR|ENSG00000107864|unk|total|mutant (ssRNA)
RNA: GGGAGUUCUACAGUCCGACGAUCAUGAAGGCCUGCCCGCACCCGCGUGGACAUUUUUCCCGCAUUCACCCUUGGGCUGCAGACCGUAAUAUAUAAACACACACAAUGAUUGCAAGACUAUGUAAAUCUUUUUUUAAUCUUCUUCAACAGAGGAUUGAGCAUCA
B19: chr4:24540214:24540319:-|CDS|ENSG00000109606|unk|FALSE|unique (ssRNA)
RNA: GGGAGUUCUACAGUCCGACGAUCUACUUUGUCACAUUUUUGCUUGCUUAAGGCACCGUGUCUAAUAGAUUGUCUUUUACCACUAGCUCCUGAAACUCUGAUGAGAGCCCUGGAACUUUUGAAUUACCUGGCUGCUUUAAAUGACAACAGAGGAUUGAGCAUCA
B20: chr4:175632990:175633131:-|3pUTR|ENSG00000150625|msi1|total|mutant (ssRNA)
RNA: GGGAGUUCUACAGUCCGACGAUCGUUGACACUUUUGGCUUUUAUUUCUGGUAUCCGAGUUUGUAUUUUCACAGAGUGCUUUGCCGCAGGCAUUACAAUUAAUCUGUUUUGUACAUAAAUGUGCCAACAGCUUGAUGGUGGCGUCAACAGAGGAUUGAGCAUCA
B21: chr11:35231115:35231675:+|3pUTR|ENSG00000026508|msi1|total|mutant (ssRNA)
RNA: GGGAGUUCUACAGUCCGACGAUCCAGGACAAGGUUCAAAAUGGUUACAACAGCCUCUACCUGUCGCCCCAGGGAGAAAGGGGCCGUGAUACAAGUCUCACCGCCAGAGAUGGUUUUCCACUCCUUCCCGAUAUUCCCAAAAAGCAACAGAGGAUUGAGCAUCA
B22: chr17:142788:147440:-|three_prime_utr|ENSG00000272636|control|control|control (ssRNA)
RNA: GGGAGUUCUACAGUCCGACGAUCGAGACCUCAGCACCUGCCCAGGGGAAGGGGACACGCCCAUCUGGGAGCAAAGACCCUUCUAGAGGCCAGCCCCGGCUGAGAGGACAGGAGUGUGGGGGCGCCUUGGCGGACAGUGGGAACCAACAGAGGAUUGAGCAUCA

The other results are listed elsewhere or left out.

The target in the assay is MSI1 full-length (mouse, UniProt Q61474 1-362). As to the kind of experiment: nsRBNS (natural sequence RNA bind-n-seq); RBNS binding buffer (assumed for nsRBNS): 25 mM Tris pH 7.5, 150 mM KCl, 3 mM MgCl2, 0.01% Triton X-100, 500 ug/ml BSA, 20 U/ml SUPERase-In, 4 C; UNK is unkempt and MSI1 is Musashi-1; names of the RNAs are library labels; protein concentration not given here; high values mean tight binding.
Sequence of UniProt Q61474 (Q61474 whole entry): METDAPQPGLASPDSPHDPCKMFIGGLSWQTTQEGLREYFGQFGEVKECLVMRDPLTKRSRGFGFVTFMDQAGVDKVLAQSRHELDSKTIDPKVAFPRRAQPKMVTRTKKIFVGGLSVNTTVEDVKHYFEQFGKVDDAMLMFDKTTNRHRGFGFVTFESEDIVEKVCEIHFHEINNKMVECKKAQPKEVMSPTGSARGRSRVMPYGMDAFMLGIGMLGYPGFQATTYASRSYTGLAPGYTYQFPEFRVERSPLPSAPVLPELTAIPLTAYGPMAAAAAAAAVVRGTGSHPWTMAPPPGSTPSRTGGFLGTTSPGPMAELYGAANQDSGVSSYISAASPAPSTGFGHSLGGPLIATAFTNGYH
Turning to B1, the binding signal was found to be 2.17 enrichment R.
Under B2 stands 0.573 enrichment R.
Under B3 stands 8.1 enrichment R.
In turn, B4 returned a binding signal of 0.712 enrichment R.
Under B5 stands 0.41 enrichment R.
Regarding B6, the binding signal was 2.93 enrichment R.
B7: the binding signal turned out to be 1.03 enrichment R.
Under B8 stands 0.463 enrichment R; under B9, 0.358 enrichment R; under B10, 7.83 enrichment R.
Under B11 stands 14.4 enrichment R.
Under B12 stands 5.59 enrichment R; under B13, 0.532 enrichment R.
On to B14, for which the binding signal amounted to 20 enrichment R.
Molecule B15 displayed a binding signal of 0.366 enrichment R.
With B16 the figure was 0.499 enrichment R; with B17, 0.588 enrichment R.
With B18 the figure was 1.02 enrichment R; with B19, 0.238 enrichment R; with B20, 0.286 enrichment R.
In the case of B21, the binding signal came to 0.427 enrichment R.
Turning to B22, the binding signal came out at 0.387 enrichment R.
